Read counts are not given, so values of variants with three or more changes are uncertain.
B1: LINE1-mini (parent)
chain: GGCAGAGCUCAACACAGCGUGGCAAAGUGGCUGUGGCUAGACUGCC

Variants of: B1
Assay: self-cleavage, relative activity (ratio to wild type); higher = more cleavage; in vitro, sequencing; the parent is a self-cleaving ribozyme

Variant | self-cleavage
UGCAGCGCUCAACACAGCUCGGCAAAGGGGCUGUGGCUAGACUGCC | 0.02
UGCAGGGCUCAACACAGCGUAGCUAAGGAGCUGUGGCCAGACUGCC | 0.1
UGCAGCGCUCAACACCGCGUGUCAAAGUGGCUGUGGCUAGACUGCC | 0.05
UGCAGAGCUCCACACAGCGUGGUAAAGCGGCAGUGGCUAGACUGCC | 0.02
UGCAGAGCUCAGCAAAGCGUGGCAAAGUGUCUGUGGCUAGACUACC | 0.01
UGCAGAGCUCAACCCAGCGUGGUAAAGUGGCCGUGGCUAGACUGCC | 0.06
UGCAGAGCUCAGUACAGCGUGGCAAAGUGACUGUCGCUAGACUGCC | 0.02
UGCAGAGCUCAGCACCGCGUGGCAAAGUGGCUGUGUCUAGACUGCC | 0.06
UGCAGAGCUCCACACAGUAUGCCAAAGUGGCUUUGGCUAGACUGCC | 0.01
UGCAGAGCUCACCACAGCGUGGCAUAUUGGCUGUGGCUAGACUGCC | 0
UGCAGAGCUCAUCGCUGCGUGGCAAAGUGGCUGUGGCUAGACUGCC | 0
UGCGGAGCUCAACACAGCGUGGCAAAGUGGCUGUGACUAAACUGCC | 0.02
UGCAGAGCUCCACACAGCGUGACAAAGUGGCUGUGGCUAGACUGCC | 0.07
UGCAGAGCUCGACACAGCGUCGCAAAGUGGCUGUGGCUAGACUGCC | 0.02
UGCAGGGCUUAACACAGCGUGGCAAAGUGGUUAUGGCUAGACUGCC | 0.01
UGCAGUGCUCAACACAGCGUGCCAAGGUGGCUGUGGCUAGACUGCC | 0.21
UGCGGUGCACAACACAGCGUGGCAAAGUGGCUGUGCCUAGACUGCC | 0.01
UGCAGAGCUCACCACAGCGUGGCAAAGGGGCUGUGGCUAGACUGCC | 0
UGCAGCGCUCAACACAGCGUGGCAAAGUGGCUGUGGCUAGACUGCU | 0.31
UGCAGAGCUCCACACAGCGUGGCAAAGAGGCUGUGGCUAGACUGCC | 0.04
UGCAGAGCUCAGCACAGCGUGGCAUAGUGGCUAUGGCGAGACUGCC | 0
UGCGGUGCCCAACACAGCGUGGCAAACUGGCUGUGGCUCGACUGCC | 0.07
UGCAGAGCUCAUCACAGCGUGGCAAAGUGGCUGUGGCUAGACUGCG | 0.48

Variant | self-cleavage
UGCAGCGCUCAACACAGCGUGGCAAAGUGGCUGUGGCUUGUCUGCC | 0.02
UGCAGAGCUCAACCCAGCGUGGCCAAGUGGCUGUGGCUGGACUGCC | 0.01
UGCAGUGUUCAACACAGCGUGGGAAACUGGCUGUGGCUAGACUGCC | 0.01
UGCAGAGCUCAGCACAGCGUGGCAAAGUGGCUGUGGCUAAACUGCC | 0.02
UGCAGCGCAAAACACAGCGUGGCAUAGUGGCUGUGGCUAGACUGCC | 0.03
UGCAGAGCUCUACACAGCGCGGCAAAGUGGCUGUGGCUAGACUACC | 0.02
UGCAGAGCUCAACGCAACGUGGCAAAGUGCUUGUGGCUAGACUGCC | 0.01
UGCAGAGCUCACCACAGCCUGGCAAAGUGGCUGUGGCUAGACUGCC | 0
UGCAGCGCUCGACACAGCGUAGCAAAGUGGCUGUGGCUAGACUGCC | 0.04
UGCAGCGCUCAACACAGCGUGGCAAAGUGGCUGUUGCUAGACUGCC | 0.03
UGCCGAGCUCAACACAGCGGUGCAAAGUGGCUGUGGCGAGAAUGUC | 0.05
UGCAGAGCUCAGCACAGCGUGGGAAAGUGGCUGUGGCUAGAAUGCC | 0.02
UGCGGAGCUCAACACAUCAUGGCCAAUGGGCUGUGGCUACACUGCC | 0.01
UGCAGAGCUCAGCCCAGCGUGGCAAAGUGGCUGUGGCUAGACUGCC | 0.01
UGCAGAGCUCAGCGCAGCGUGGCAAAGUGGCUGUGGCUAGACUGCC | 0.02
UGCAGAGCUCCACACAGCGUGGCAUAGUGGCUGUGGCUAUACUGCC | 0.02
UGCAGAGCUCAACGCAACGUGGCAAAGUGGCUGUGGCGAGACUGCC | 0.02
UGCAGCGCUCAACACAGCGUGGCAAAGUGGCUGUGGCUAGGCUGCA | 2.73
UGCAGCGCUCAACACAGCGUGGCAAAGUGGAUGUGGCUAGACUGCA | 0.03
UGCAGAGCUCCACACAGCGUGGCAAAGUGGCUGAGGCUAGACUGCC | 0.01
UGCAGGGAUCAACACAGCGUGGCAAAGUGACUGUAGCUAGAAUGGC | 0.03
UGCGGAACUCAACACAGCGUGGCCAAGUGGCUGUUGCUAGACUGCC | 0.05
UGCAGAGCUCAGCACAGCUUGGCAAAGUGGCUGUGGUUAGACUGCC | 0.04

Variant | self-cleavage
UGCGGAGCGCAACACAGCGUGGCAAAGUGGCUGUGGCUAGACUGCA | 0.03
UGCAGAGCUCAUCACAGCGUGGCCAAGUGGCUGUGGCUAGACUGCC | 0.02
UGCAGGGCUCAACACAGCGUGGCAAAGUGGCUGUGGCUAGCCUGAC | 0
UGCAGGGCUCAACAACGCGUGGCAAAGUGGCUGUGGCUAGACUGCC | 0.01
UGCCGAGCUCAACACACCGUGUCAAAGCGGCUGUGGCUAGACUGCC | 0.05
UGCAGAGCUCAGCACAGCGUGGCAAAGUGGCUGUGGCUAGAUUGCG | 0.02
UGCAGAGCUCUACACAGCGUGGCAAAGUGGCUCUGGCUAGAUUGUC | 0.01
UGCAGAGCUCACCACAGCGUGGCAAAGUGGCUGUGGCUACACUGCC | 0.01
UGCAGAGCUCACCACAGCGUGGCAAAGUGGCUGUGGCUAUACUGCC | 0.03
UGCAGAGCUCAUCUCAGCGUGGCAAAGUGGCUGUAGCUAGACUGCC | 0.04
UGCUGAGCUCAUCACAGCGUGGCAAAGUGGCUGUGGCUAGACUGAC | 0.01
UGCAGAGCUCAACCCAGCGGGGCAAAGUGGCUGUGGCUAGACUGCC | 0.06
UGCAGCGCUCAACACAGCGUUGCAAAGUGGCUGUGGCUAGACUGCC | 0.05
UGCUGAGCUCAACACAGCGUGGCAAAGUGGCUGUGUCUAGACUGCC | 0.04
UGCAGUGCUCAACACAGCGUGUCAAAGUGGCUGUGUCUAAACUGUC | 0.06
UGCAGAGCUCUACACAGGGUGGCAAAAUGGCUGUGGCUAGACUGCC | 0.01
UGCAGAGCUCACCACAGCGUGGCAAAGUGGCUGUGGCUAGAGUGCC | 0.02
UGCAGGGCUCAACACUGCAUGGCAGAUUGACUGUGGCUAGACUGCC | 0.01
UGCUGAGCUCAACACUGCGUGGUAAAGUGGCUGUGGCUAGACUGCA | 0.04
UGCAGCGCUCAACACAGCGUGGCAACGCGGCUGUGGCUCGACUGCC | 0
UGCGGAGCUCAACACAGCGUGGGAAAGUGGUGGUGGCUAGACUGCC | 0.07
UGCAGAGCUCAGCACAGCGUGGCAAAGUGACUGUGGCUAGACUGCC | 0.01
UGCAGGGCUCAACACAGCGUGGCAAAGUGGCUGUGGCGAGACUGCC | 0.01

Variant | self-cleavage
UGCUGAGCUCAACACGGCAUGGCAAAGUGGCUGAGACUAGACUGCC | 0.02
UGCAGAGCUCACCACAGCGUGGCAAAGUGGCUGUGGCCAGACUGCC | 0.02
UGCAGAGCUCAUCGCAGCGUGGCAAAGUGGCUGUGGCUAGACUGCC | 0.04
UGCCGAGCUCAACACAGCGUGGCAAAGUAGCAGUGGCUAGACUUCC | 0.02
UGCAGAGCUCACCCCUGCGUGGCAAAGUGGCUGUGGCUAGACUGCC | 0.01
UGCAGAGCUCACCACAGCGUGGCAAAGUGGCUGUGUCUAGACUUCC | 0.01
UGCCGACCUCAACACAGCGUGGCAAAGUGGCUGUGGCUAAACUGCC | 0.11
UGCAGUGCUGAUCUCAGCGUGGCAAAGUGGCUGUCGAUAGACUGCC | 0
UGCAGUGCUCAACACUGCGAGGCAAAGUGGCUGUGGCUAGACUGCC | 0.03
UGCUGAGAUCAACACAGGGUGGCAAAGUGGCUGUGGCUAAACUGUC | 0.08
UGCAGAGCUCUACACAGCGUGUCAAAGUGGCUGCGGCUAGACUGCC | 0.02
UGCAGAGCUCAACCCAGCGUGGCAUAGUGGCUGUGGCUAGACUGCC | 0.03
UGCGGAGUUUAACACAACGUGGCAAAGUGGCUGUGGCUAGACUGCC | 0.02
UGCUGAGCUCAACACAGCGUGCCAAAGUGGGUGUGGCUAGACUGCC | 0.01
UGCAGGGCUCAACACAGCGUGGCAAAGUGGCUGUUGCUAGACUGCC | 0.03
UGCAGAGCUCACCACAGCGUGGCAAAGUGUAUGUGGCUAGACUGCC | 0
UGCAGAGCUCACCGCAGCGUGGCAAAGUGGCUGUGGCUAGACUGCC | 0.01
UGCAGAGCUCGCCACAGCGUGGCAAAGUGGCUGUGGCUAGACUGCC | 0
UGCAGAGCUCCACACAGCGUGGCAAAGUGGGUGUGGCUAGACUGCC | 0
UGCAGAGCUCGACACAGCGUGGCAAAGGGGCUGUGGCUAGACUGCC | 0
UGCAGAGCUCAGCACAGCGUGGCAAUGUGGCUGUGGCUAGACUGCC | 0.02
UGCAGAGCUCAACCCCGCGUGGCAAAGUGGCUGUGGCUAGACAGCC | 0
UGCAGGGCUCAACACAUCGUGGCAAAGUGGCUGUGGCUUGACUGCC | 0

Variant | self-cleavage
UGCAGUGCUCAACACAACGUGGCAAAGUGGCUGUGGCUAGACUGCC | 0.23
UGCAGAGCUCAACCCAGAGUGGCAAAGUGGCUGUGGCUAGACUGCC | 0.04
UGCAGGGCUCAACACAGCGUGGCAAAGUGGCUCUGGCUGGACUGCC | 0.01
UGCAGAGCUCUACACAGAGUGACAAAGUGGCUGUGGCUAGACAGCC | 0
UGCAGGGCUCAACUCAUCGUGGCAAAGUGGCUGUGGCUAGCCUGCC | 0.04
UGCUGAGCGCAACACAGCGUGGCAAAGUUGCUGUGGCUAGACUGCC | 0.01
UGCAGUGCUCAACCCACCGUGGCAGAGUGGCUGUGGCUAGACUGCC | 0.01
UGCGGAGCUCAACACAGCGUGGGAAAGUGGCUGUGGCUAGACUGCC | 0.14
UGCAGAGCUCGACACAGCGUGUCAAAGUGGCUGGGGCUAGCCUGCC | 0.01
UGCGGAGCUCAACACAGCGUGGCAAAGUGGCUGUGUCUAGACUGCC | 0.12
UGCAGAGCUCGACACAGCGUGGCAAAGUGGCUGUGGCUAUACUGCC | 0.01
UGCCGAGCUCAACACAGCGAUGCAAAGUGGCUGUGGCUAUACUGAC | 0.04
UGCAGAGCUCUACACAGCGUGGCAAAGUGGCUGGGGCUAGACUGCU | 0.02
UGCGGAGCUCAAAACAGCGUGGCAAAGUGGCUGUGGUUAGACUGCC | 0.17
UGCAGGGCUCAAAACAGAGUUGCAAAGGGGCUGUGGCUAGACUGGC | 0.02
UGCGGAGCUUCCCACAGCGUUGCAAAGUGGCUUUGGCUAGACUGCC | 0.01
UGCAGAGCUCUACACAUCGUGGCAAAGAUGCUGUGACUAGACUGCC | 0.01
UGCGGAGCUCGACACAGCGGGGCAAAGUGGAUGUGGCUAGACUGCC | 0.01
UGCAGAGCUCAACGCAGCAUUGCAAAGUGGCUGUGGCUAGACUGCU | 0.22
UGCAGAGCUCUACACAGAGUGGCAAAGUGGCUGUGGCUAGAGUGCC | 0.01

Reference: the RNAGym collection of RNA variant scans (doi:10.7554/elife.90254)
